In the supplement of paper PMC9446081 one finds relative growth data, which are given here for 59 compounds.

Out of some 39,000 compounds screened, about 220 (0.56%) showed activity. Some of the results follow.
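Note: static incubation at 37 °C against the wild-type strain, values averaged over two biological replicates.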

The test system of the assay is Escherichia coli K-12 BW25113. Description: relative growth (OD600 normalised to plate interquartile mean) (fraction); higher = less growth inhibition, active = 0.2 or less. The following applies: 50 µM; LB; incubation time: overnight (16-24 h).
Turning to `O=C(C[C@H]1CC[C@@H]2[C@H](COC[C@@H](O)CN2CC2CCOCC2)O1)N1CCOCC1`, the relative growth was inactive: 0.983.
Turning to `Cc1ccc(S(=O)(=O)Nc2ccc3c(c2)C(=O)N([C@H](C)CO)C[C@H](C)[C@@H](CN(C)C(=O)Nc2cccc4ccccc24)OCCCC[C@@H](C)O3)cc1`, the relative growth was inactive: 1.03.
As for `C[C@H](CO)N1C[C@H](C)[C@H](CN(C)Cc2ccc3c(c2)OCO3)Oc2ccc(NC(=O)C3CC3)cc2CC1=O`, the figure is inactive: 1.
In the case of `COc1ccc(S(=O)(=O)N(C)C[C@@H]2Oc3ccc(NC(=O)Nc4c(C)noc4C)cc3C(=O)N([C@H](C)CO)C[C@H]2C)cc1`, the relative growth was inactive: 0.893.
In the case of `C[C@H]1CN([C@@H](C)CO)C(=O)CCCn2cc(nn2)CO[C@H]1CN(C)S(C)(=O)=O`, the relative growth is inactive: 0.991.
In the case of `Cc1ccc(-c2cnc3c(c2)C(=O)N([C@H](C)CO)C[C@H](C)[C@@H](CN(C)C(=O)Cc2ccncc2)O3)cc1` it was inactive: 1.02; in that of `C[C@@H]1CN([C@H](C)CO)C(=O)c2cc(C#CCN(C)C)cnc2O[C@@H]1CN(C)C(=O)c1ccc2c(c1)OCO2`, inactive: 1.01.
In the case of `CS(=O)(=O)N1CCN(C(=O)NCc2ccccc2)C[C@]2(CNC(=O)C2)C1`, the relative growth is inactive: 1.01.
`Cc1ccc(S(=O)(=O)Nc2ccc3c(c2)C(=O)N([C@H](C)CO)C[C@H](C)[C@H](CN(C)Cc2ccccc2)OCCCC[C@@H](C)O3)cc1`: the relative growth was inactive: 0.99.
Consider `C[C@H](CO)N1C[C@H](C)[C@@H](CN(C)C(=O)CCC(F)(F)F)OCc2ccccc2-c2c(n(C)c3ccccc23)C1=O`, for which the relative growth is inactive: 0.996.
Take `C[C@H]1CN([C@@H](C)CO)C(=O)c2cc(NC(=O)Nc3ccc(F)cc3)ccc2O[C@H]1CN(C)CC1CCCCC1`: the relative growth was inactive: 1.01.
With `O=C(O)CCC(=O)N1CC(=O)Nc2ccccc21`, the relative growth was inactive: 0.964.
Regarding `C[C@@H]1CCCCO[C@@H](CN(C)S(C)(=O)=O)[C@H](C)CN([C@@H](C)CO)C(=O)c2cc(NS(=O)(=O)c3cn(C)cn3)ccc2O1`, the relative growth was inactive: 0.966.
`CN1C(=O)c2cc(NS(=O)(=O)CC(F)(F)F)ccc2OC[C@H]2O[C@@H](CC(=O)NCC3CCCCC3)CC[C@@H]21`: the relative growth is inactive: 1.01.
In the case of `COc1ccc(-c2csc(C(C#N)=C3CCCCC3)n2)cc1` it was inactive: 0.993.
As for `CC(C)NC(=O)N[C@@H]1CC[C@@H](CCN)O[C@@H]1CO`, the figure is inactive: 1.01.
On to `C[C@H](CO)N1C[C@H](C)[C@H](CN(C)C(=O)Cc2ccccn2)Oc2cc(-c3ccc(C(=O)N(C)C)cc3)ccc2S1(=O)=O`, for which the relative growth was inactive: 0.991.
As for `C[C@@H]1CCCCO[C@@H](CN(C)S(=O)(=O)c2ccc(Cl)cc2)[C@@H](C)CN([C@@H](C)CO)C(=O)c2cc(NC(=O)Nc3ccc(F)cc3)ccc2O1`, the relative growth was inactive: 1.03.
Turning to `Cc1ccc(S(=O)(=O)N(C)C[C@H]2OCCCC[C@H](C)Oc3ccc(NS(C)(=O)=O)cc3C(=O)N([C@H](C)CO)C[C@H]2C)cc1`, the relative growth is inactive: 0.971.
As for `CCCNC(=O)Nc1ccc2c(c1)OC[C@@H](C)N(C(=O)C1CCOCC1)C[C@H](C)[C@@H](OC)CN(C)C2=O`, the figure is inactive: 0.979.
In the case of `C[C@H]1CCCCO[C@H](CN(C)C(=O)Nc2ccc(C(F)(F)F)cc2)[C@@H](C)CN([C@@H](C)CO)C(=O)c2cc(NC(=O)Nc3ccc(C(F)(F)F)cc3)ccc2O1`, the relative growth is inactive: 1.02.
As to `C[C@H]1CN([C@@H](C)CO)S(=O)(=O)c2ccc(C3=CCCCC3)cc2O[C@@H]1CN(C)S(=O)(=O)c1cn(C)cn1`, the relative growth was inactive: 1.02.
As for `CN1C(=O)c2cc(NS(=O)(=O)c3ccc(F)cc3)ccc2OC[C@@H]2O[C@@H](CC(=O)NCC(F)(F)F)CC[C@H]21`, the figure is inactive: 1.03; as for `COc1cc2c(cc1OC)CN(C(=O)[C@@H]1[C@H]3C(=O)O[C@H](c4ccccc4)[C@H](c4ccccc4)N3[C@H](c3ccccc3OCCO)[C@@]13C(=O)Nc1ccc(C#CC4(O)CCCCCC4)cc13)CC2`, inactive: 1.08; as for `C[C@H](CO)N1C[C@H](C)[C@H](CN(C)C(=O)Nc2ccccc2)Oc2ccc(NC(=O)Cn3cnnn3)cc2CC1=O`, inactive: 0.991.
For the compound `C[C@@H]1CN([C@@H](C)CO)C(=O)Cc2cc(NC(=O)NC3CCCCC3)ccc2O[C@@H]1CN(C)Cc1ccc(C(=O)Nc2ccccc2N)cc1`, the relative growth was inactive: 1.02.
As to `COc1ccc([Si](C)(C)[C@@H]2[C@@H](CCn3cc([C@H](O)c4ccccc4)nn3)O[C@]3(C(=O)N(Cc4cccc(N5CCOC5=O)c4)c4ccccc43)[C@H]2C)cc1`, the relative growth was inactive: 1.01.
As to `COC1C(O)CC(=O)OC(C)CC=CC=CC(O)C(C)CC(CC=O)C1OC1OC(C)C(OC2CC(C)(O)C(OC(=O)CC(C)C)C(C)O2)C(N(C)C)C1O` (centres undefined) [KITASAMYCINS [A1 shown]], the relative growth was inactive: 0.385.
With `COc1ccc(NC(=O)N(C)C[C@@H]2OCCCC[C@H](C)Oc3ccc(NS(=O)(=O)c4ccccc4)cc3C(=O)N([C@H](C)CO)C[C@H]2C)cc1`, the relative growth is inactive: 1.04.
As for `CC(C)(C)[S@@](=O)N1Cc2cc(C(=O)NCc3ccc4c(c3)OCO4)nc(-c3cccc(-c4ccccc4)c3)c2[C@H]1CCO`, the figure is inactive: 1.02; as for `C[C@H]1CN([C@@H](C)CO)C(=O)Cc2cc(NC(=O)CCCCCC(=O)Nc3ccccc3N)ccc2O[C@@H]1CN(C)C(=O)Nc1cccc2ccccc12`, inactive: 0.975; as for `COC[C@@H](C)NC(=O)C1CN(C(C)=O)C1`, inactive: 0.976.
On to `N[C@@H](CN(O)[N+][O-])C(=O)O`, for which the relative growth is inactive: 0.979.
As to `C[C@@H]1CCCCO[C@@H](CN(C)S(=O)(=O)c2cccs2)[C@H](C)CN([C@H](C)CO)C(=O)c2cc(NC(=O)Nc3ccccc3)ccc2O1`, the relative growth was inactive: 1.05.
Consider `C[C@H](O)C#Cc1cnc2c(c1)C(=O)N([C@H](C)CO)C[C@@H](C)[C@H](CN(C)Cc1cncnc1)O2`, for which the relative growth is inactive: 1.
Consider `COc1ccc(CNC(=O)N(C)C[C@@H]2OCc3ccccc3-c3c(n(C)c4ccccc34)C(=O)N([C@H](C)CO)C[C@@H]2C)cc1`, for which the relative growth was inactive: 1.02.
In the case of `CC(C)NC(=O)N(C)C[C@@H]1OCCCC[C@@H](C)Oc2ccc(NC(=O)C3CCCCC3)cc2C(=O)N([C@@H](C)CO)C[C@H]1C` it was inactive: 0.957.
As for `COc1ccc(S(=O)(=O)Nc2ccc3c(c2)CC(=O)N([C@H](C)CO)C[C@@H](C)[C@@H](CN(C)S(=O)(=O)c2ccc(F)cc2)O3)cc1`, the relative growth was inactive: 1.01.
As for `COc1ccc(CNC(=O)C[C@H]2CC[C@@H]3[C@@H](COc4ccc(NC(=O)C(C)C)cc4C(=O)N3C)O2)cc1`, the relative growth was inactive: 0.983.
`NNC(=O)c1ccccc1O`: the relative growth was inactive: 0.978.
In the case of `COc1ccccc1CNC(=O)C[C@@H]1C[C@H]2c3cc(NC(=O)C4CCOCC4)ccc3O[C@H]2[C@@H](CO)O1` it was inactive: 1.01; in that of `COc1ccc(CN(C)C[C@H]2OCCCC[C@H](C)Oc3ccc(NC(=O)CCC(F)(F)F)cc3C(=O)N([C@H](C)CO)C[C@@H]2C)cc1`, inactive: 1.01.
For `Cc1ccc(S(=O)(=O)N(C)C[C@H]2OCCCC[C@@H](C)Oc3ccc(NC(=O)Cc4ccccc4)cc3C(=O)N([C@H](C)CO)C[C@@H]2C)cc1`, the relative growth was inactive: 0.999.
Consider `Cc1cccc(C)c1NC(=O)c1ccccc1C(=O)O`, for which the relative growth was inactive: 0.975.
As for `C[C@@H]1COC(=O)[C@H](Cc2ccc(F)cc2)CC=CC[C@H](CC(=O)N(CCO)Cc2ccccc2)C(=O)N1`, the figure is inactive: 1.02.
Take `C[C@@H]1CN([C@@H](C)CO)C(=O)c2cc(N(C)C)ccc2O[C@@H](C)CCCCO[C@@H]1CN(C)C(=O)CCCN(C)C`: the relative growth is inactive: 1.
For `C[C@@H]1CCCCO[C@H](CN(C)Cc2ccc3c(c2)OCO3)[C@H](C)CN([C@@H](C)CO)C(=O)c2cc(NC(=O)Nc3ccccc3)ccc2O1`, the relative growth was inactive: 0.981.
For the compound `CNC[C@@H]1Oc2ccc(NS(=O)(=O)c3cn(C)cn3)cc2C(=O)N([C@@H](C)CO)C[C@H]1C`, the relative growth is inactive: 1.02.
Regarding `C[C@@H]1CN([C@@H](C)CO)C(=O)c2cc(NS(=O)(=O)c3ccc(Cl)cc3)ccc2O[C@@H](C)CCCCO[C@@H]1CN(C)C(=O)Nc1ccc(F)cc1`, the relative growth is inactive: 1.01.
With `Nc1ccn2ccnc2c1`, the relative growth is inactive: 1.01.
Take `COc1ccc2c3c1OC1CC(O)C=CC31CCN(C)C2` (centres undefined): the relative growth was inactive: 0.974.
As for `C[C@@H]1CN([C@@H](C)CO)C(=O)Cc2cc(NC(=O)Nc3cccc4ccccc34)ccc2O[C@H]1CN(C)C(=O)NC1CCCCC1`, the figure is inactive: 1.01; as for `COc1ccccc1C#Cc1cnc2c(c1)C(=O)N([C@H](C)CO)C[C@H](C)[C@H](CN(C)C(=O)c1ccc3c(c1)OCO3)O2`, inactive: 1.
Consider `CCC(=O)N(C)C[C@@H]1Oc2ncc(C#C[C@@H](C)O)cc2C(=O)N([C@H](C)CO)C[C@@H]1C`, for which the relative growth was inactive: 1.01.
For the compound `C[C@@H]1CN([C@H](C)CO)C(=O)Cc2cc(NS(C)(=O)=O)ccc2O[C@H]1CN(C)S(=O)(=O)c1cccs1`, the relative growth was inactive: 1.02.
Regarding `C#CCN(O[C@@H](/C=C/[C@@H](O)Cc1ccccc1)C1CC1)[C@@H](Cc1ccc(-n2cc(COc3ccccc3/C=C(C)/C=C/C(=O)NO)nn2)cc1)C(=O)OC`, the relative growth was inactive: 1.
Take `C[C@@H]1CCCCO[C@@H](CN(C)C(=O)c2ccccc2)[C@@H](C)CN([C@H](C)CO)C(=O)c2cc(NC(=O)Nc3ccc(C(F)(F)F)cc3)ccc2O1`: the relative growth was inactive: 1.02.
On to `COc1ccccc1NC(=O)N(C)C[C@@H]1Oc2ncc(C#CC(C)C)cc2C(=O)N([C@H](C)CO)C[C@H]1C`, for which the relative growth is inactive: 1.02.
On to `COC1(NC(=O)C(C(=O)[O-])c2ccc(O)cc2)C(=O)N2C(C(=O)[O-])=C(CSc3nnnn3C)COC21.[Na+].[Na+]` (centres undefined), for which the relative growth is active: 0.0483.
